Hit rate of the full screen: of about 310,000 compounds, about 2,200 (0.71%) showed an effect of 50% or more. Effects have a minus sign here. Some of the results follow.

Chain of human ether-à-go-go-related gene (hERG) potassium channel (Q12809 whole entry, looked up): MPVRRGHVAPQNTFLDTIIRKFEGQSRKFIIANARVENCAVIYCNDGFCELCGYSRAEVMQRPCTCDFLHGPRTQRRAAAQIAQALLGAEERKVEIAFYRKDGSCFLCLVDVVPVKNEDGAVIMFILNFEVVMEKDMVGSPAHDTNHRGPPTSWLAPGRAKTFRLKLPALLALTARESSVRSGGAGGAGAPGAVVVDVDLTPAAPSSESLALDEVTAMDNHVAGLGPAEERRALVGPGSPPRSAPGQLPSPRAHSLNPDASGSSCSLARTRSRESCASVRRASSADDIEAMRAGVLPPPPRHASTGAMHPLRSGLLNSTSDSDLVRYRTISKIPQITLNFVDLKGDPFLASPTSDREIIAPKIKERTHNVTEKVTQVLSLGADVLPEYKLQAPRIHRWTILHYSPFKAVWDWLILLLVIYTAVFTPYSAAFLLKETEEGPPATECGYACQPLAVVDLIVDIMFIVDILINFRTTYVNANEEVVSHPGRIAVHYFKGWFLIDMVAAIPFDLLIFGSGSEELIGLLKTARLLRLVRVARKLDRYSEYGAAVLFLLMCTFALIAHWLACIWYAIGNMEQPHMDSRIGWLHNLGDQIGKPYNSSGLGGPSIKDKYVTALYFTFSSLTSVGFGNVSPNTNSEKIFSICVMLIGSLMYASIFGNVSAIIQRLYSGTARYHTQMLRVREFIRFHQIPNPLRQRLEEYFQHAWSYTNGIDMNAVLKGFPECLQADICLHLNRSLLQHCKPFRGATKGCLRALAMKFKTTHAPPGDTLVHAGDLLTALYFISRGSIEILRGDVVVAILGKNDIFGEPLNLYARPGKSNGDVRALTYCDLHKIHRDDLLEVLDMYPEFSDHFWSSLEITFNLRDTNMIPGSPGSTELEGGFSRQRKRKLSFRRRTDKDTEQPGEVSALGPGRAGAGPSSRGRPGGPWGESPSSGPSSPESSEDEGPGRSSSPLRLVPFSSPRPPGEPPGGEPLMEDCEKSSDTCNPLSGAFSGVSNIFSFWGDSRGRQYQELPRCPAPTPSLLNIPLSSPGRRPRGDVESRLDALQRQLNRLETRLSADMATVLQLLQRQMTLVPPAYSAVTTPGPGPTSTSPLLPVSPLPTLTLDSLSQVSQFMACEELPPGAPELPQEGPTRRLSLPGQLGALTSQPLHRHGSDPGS

This test has as its target human ether-à-go-go-related gene (hERG) potassium channel (human, UniProt Q12809). The test can be described thus: primary screen, population patch clamp on CHO cells stably expressing hERG.
With `Br.CCCn1c(=N)n(CC(=O)O)c2ccccc21`, the “hERG current change (%, negative = inhibition) at 1uM” value was -1.05%.
`Cc1cccc(NC(=S)NNC(=O)c2csc(C)c2)c1`: the “hERG current change (%, negative = inhibition) at 1uM” value amounted to 5.34%.
The same measure for `CCCCN(CCCC)C(=O)c1cn(CC)c2cc(N3CCN(C)CC3)c(F)cc2c1=O.Cl`: 9.42%; for `O=C(c1cccc(C(=O)N2CCC(O)(c3ccccc3)CC2)c1)N1CCC(O)(c2ccccc2)CC1`: 10%.
As for `Cn1ncc2c(Nc3ccccc3Cl)nc(Cl)nc21`, the figure is 4.37%; as for `CCN(CCO)Cc1csc2c(Br)cccc12.Cl`, -4.13%.
As for `CCOC(=O)c1ccccc1NC(=S)N1CCC(C)CC1`, the figure is -4.05%; as for `C[C@]12CCC(=O)C=C1CC[C@@H]1[C@@H]2CC[C@]2(C)C(=O)CC[C@@H]12`, 9.64%.
With `CCn1nnnc1SCC(=O)N1c2ccccc2NC(=O)CC1C` (centres unmarked), the “hERG current change (%, negative = inhibition) at 1uM” value was 9.79%.
Regarding `Cc1ccc(-c2csc(NC(=S)NC(=O)c3cccs3)n2)cc1`, the “hERG current change (%, negative = inhibition) at 1uM” value was determined as 17.6%.
The same measure for `CC(/C=N/NC(=O)c1sc(N)nc1C)=C\c1ccccc1`: 8.09%; for `CCCCOC(=O)NC1CCS(=O)(=O)C1` (centres unmarked): 17.9%.
As for `CCN(CC(=O)Nc1ccccc1C(F)(F)F)C(=O)CCOc1ccc(C)cc1`, the figure is 10.8%; as for `COc1ccc(N(C(=O)Cn2nnc3ccccc32)C(C(=O)NCc2ccco2)c2cccnc2)cc1` (centres unmarked), 4.47%; as for `Cc1ccc(NC(=O)CO/N=C(\N)c2nonc2N)cc1`, 13.3%.
As to `O=C(c1ccco1)N1CCc2ccccc21`, the “hERG current change (%, negative = inhibition) at 1uM” value was 5.88%.
For the compound `CCc1cccc(CC)c1-n1c(SCn2nnc3ccccc3c2=O)nnc1-c1cccnc1`, the “hERG current change (%, negative = inhibition) at 1uM” value is on record as -1.63%.
As for `COc1ccc(C(c2nnnn2C(C)C)N2CCN(C(=O)c3ccco3)CC2)cc1` (centres unmarked), the figure is 12.1%; as for `O=c1cc(C(F)(F)F)[nH]c2c(C(F)(F)F)cccc12`, 12.5%.
As for `CCOCCCNC(=O)C(c1ccc(C)cc1)N(Cc1cccs1)C(=O)CNC(C)=O` (centres unmarked), the figure is -13.7%.
As for `COc1ccccc1NC(=O)C1CCCN(S(=O)(=O)c2ccc3[nH]c(=O)ccc3c2)C1` (centres unmarked), the figure is -26.6%; as for `COC(=O)Cc1c(C)nc2nc(NCc3ccccc3OC)[nH]n2c1=O`, 9.71%.
On to `CC(C)c1ccc(O)c(NC(=S)NC(=O)c2ccc3c(c2)OCO3)c1`, for which the “hERG current change (%, negative = inhibition) at 1uM” value was 0.875%.
With `CC(SCC(=O)O)c1nc2ccccc2[nH]1` (centres unmarked), the “hERG current change (%, negative = inhibition) at 1uM” value amounted to 11.2%.
Consider `COc1ccc(-c2nnc(SCC(=O)N3CCCC3)o2)cc1OC`, for which the “hERG current change (%, negative = inhibition) at 1uM” value is reported as 5.37%.
The same measure for `CC(=O)c1ccc(N2CCCCCC2)c(F)c1`: 0.156%.
As for `O=S1(=O)CCOC[C@H](CC2CCCCC2)N1Cc1cccc(C(F)(F)F)c1`, the figure is 9.51%; as for `Cc1ccc(Cn2nc(C)c(NC(=O)c3cc(-c4ccc5c(c4)OCO5)on3)c2C)cc1`, 10.7%.
Turning to `COCCN(C(=O)C(=O)NC1CCCC1)C(C(=O)NC1CCCC1)c1ccccc1F` (centres unmarked), the “hERG current change (%, negative = inhibition) at 1uM” value is listed as 13.5%.
With `CCOC(=O)N1CCC(NC(=O)c2ccc(CS(=O)c3cccc(Cl)c3)o2)CC1` (centres unmarked), the “hERG current change (%, negative = inhibition) at 1uM” value turned out to be 16%.
The same measure for `Cc1ccc(C)c2sc(NC(=O)c3nc4ccccc4s3)nc12`: 2.28%.
As for `O=C(Nc1ccccc1)N1CCSCC1`, the figure is 4.03%; as for `Cn1c(SCC(=O)c2c(N)n(C)c(=O)n(C)c2=O)nnc1-c1ccccc1`, -3.99%.
The same measure for `O=S(=O)(NCC(c1cccnc1)N1CCN(c2ccccc2)CC1)c1cc(F)ccc1F` (centres unmarked): -16.8%; for `Cc1nc(C)c(-c2ccn(C(=O)NC(C)C)n2)s1`: 10.1%; for `Cc1ccccc1Cc1n[nH]c(=S)n1N`: 12.5%.
As to `O=C(c1ccc2c3n(nc2c1)-c1ccccc1CO3)N1CCOCC1`, the “hERG current change (%, negative = inhibition) at 1uM” value was 0.232%.
The same measure for `O=C(CSc1nc2ccccc2[nH]1)N/N=C/C=C\c1ccccc1[N+](=O)[O-]`: 5.11%; for `O=C(/C=C/c1ccco1)Nc1cccc(C(=O)Nc2ccccc2C(=O)O)c1`: 3.04%; for `O=C(CSc1cccc[n+]1[O-])NC(=O)c1ccc(OC(F)F)cc1`: 9.68%.
As for `O=C(NNC(=O)C1CC(c2cccs2)=NO1)Nc1ccccc1` (centres unmarked), the figure is 5.54%; as for `CCOc1ccccc1N1CCN(C(=O)c2ccc(NS(=O)(=O)c3ccc4[nH]c(=O)[nH]c4c3)cc2)CC1`, 7.56%.
As for `COc1ccc(OCC(O)CNC(=O)c2ccc(C)cc2)cc1` (centres unmarked), the figure is 12.1%.
For the compound `CC(CCc1ccccc1)NC(=O)/C=C/c1ccccc1` (centres unmarked), the “hERG current change (%, negative = inhibition) at 1uM” value stood at 5.62%.
`O=C(O)C1CCCCC1C(=O)NCCc1ccc(F)cc1` (centres unmarked): the “hERG current change (%, negative = inhibition) at 1uM” value worked out at 12.7%.
On to `CSc1nc(N)c(C(=O)Nc2ccc([N+](=O)[O-])cc2)s1`, for which the “hERG current change (%, negative = inhibition) at 1uM” value was found to be 1.39%.
As for `C/C=C/C=C/C(=O)[C@@H]1[C@@H]([C@]2(C)OC(=O)C(C)=C2O)[C@H]2/C(=C(O)/C=C/C=C/C)C(=O)[C@]1(C)C(=O)C2(C)O` (some centres unmarked), the figure is 6.53%; as for `O=C(CN1CCOc2ccccc21)NC1CC1`, -1.91%; as for `CC(=O)Nc1nnc(SCc2ccc(F)cc2)s1`, 15.3%.
The same measure for `CC(O)Cc1cn(CC(=O)N2CCNCC2)nn1.Cl` (centres unmarked): 7.68%.
With `CC1=CCC2C(=O)N(c3ccccc3OC(=O)c3ccccc3F)C(=O)C2C1` (centres unmarked), the “hERG current change (%, negative = inhibition) at 1uM” value is recorded as -5.19%.
Regarding `CCN(C(=O)COC(=O)CSc1ccc(F)cc1)c1c(N)n(Cc2ccccc2)c(=O)[nH]c1=O`, the “hERG current change (%, negative = inhibition) at 1uM” value is 9.5%.
In the case of `Fc1ccc(OCc2cc(-c3ccccc3)no2)cc1`, the “hERG current change (%, negative = inhibition) at 1uM” value was determined as 15.7%.
The same measure for `CCOc1ccccc1CNC(=O)c1nn(C)c2c1CS(=O)(=O)c1ccccc1-2`: 13.3%.
As to `Cc1cccc(-c2cc(=O)c(C(=O)O)cn2-c2ccc(F)cc2F)c1`, the “hERG current change (%, negative = inhibition) at 1uM” value was found to be 9.46%.
The same measure for `Cc1ccc(/C=C2\SC(=S)N(CCCC(=O)Nc3nccs3)C2=O)cc1`: 14.1%; for `COc1ccc(NC(=S)NCCSc2ccc(Cl)cc2)c(OC)c1`: 3.18%.
The same measure for `N#Cc1cccc(C#N)c1Oc1ccc(N)cc1`: 10.9%; for `CCOc1ccc(CCNC(=O)COC(=O)CSc2ccccc2C)cc1OCC`: 4.92%.
As for `N#C/C(=C/c1cc(Br)cs1)C(=O)NCC1CCCO1` (centres unmarked), the figure is 2.65%; as for `Cc1ccc(S(=O)(=O)N(C)C)cc1NC(=O)C(C)OC(=O)c1ccc2c(c1)OCCO2` (centres unmarked), 9.13%.
In the case of `O=C(Nc1cccc(C(F)(F)F)c1)/C(=C/c1ccco1)NC(=O)c1cccs1`, the “hERG current change (%, negative = inhibition) at 1uM” value is on record as -3.16%.
The same measure for `CCOc1ccc(S(=O)(=O)Nc2ccc(C(=O)N3CC(C)OC(C)C3)cc2)cc1` (centres unmarked): 10.6%; for `CCn1cc(C(=O)NCc2ccccc2)c2ccccc21`: 18.8%; for `COC(=O)c1c(C)[nH]c(C(=O)C(C)OC(=O)C2CC2)c1C` (centres unmarked): 10%.
As to `COc1ccc(C(=O)Nc2c(N)nc(SCC(=O)c3ccccc3)[nH]c2=O)cc1`, the “hERG current change (%, negative = inhibition) at 1uM” value is on record as 15.2%.
The same measure for `COc1cc(C(=O)NC2CCN(Cc3ccccc3)CC2)cc(Cl)c1OC(C)C`: -21.2%; for `CC1CN(S(=O)(=O)c2cccc(C(=O)OCc3cc(=O)oc4cc(O)ccc34)c2)CC(C)O1` (centres unmarked): 8.28%.
On to `O=C(CN1CCCCC1)N1N=C(c2cccs2)CC1c1cccs1` (centres unmarked), for which the “hERG current change (%, negative = inhibition) at 1uM” value is -5.93%.
With `COc1cc(C(=O)NNC(=O)c2cc(S(=O)(=O)N(C)C)ccc2N2CCCC2)cc(OC)c1OC`, the “hERG current change (%, negative = inhibition) at 1uM” value stood at 16.2%.
The same measure for `COc1ccc2cc(CCNC(=O)C(C)C)c(=O)[nH]c2c1`: 14.5%; for `CC(C)[C@H](NC(=O)N1CC(=O)Nc2ccccc21)C(=O)N1CCC[C@H]1C(=O)O`: 14.1%.
As for `CC1=C(C(=O)OC2CCCCC2)C(c2cccs2)n2c(nc3ccccc32)N1` (centres unmarked), the figure is -1.23%.
Turning to `CN=C(SCC(=O)c1cccc(Cl)c1)c1c(O)n(C)c(=O)n(C)c1=O`, the “hERG current change (%, negative = inhibition) at 1uM” value was 2.8%.
`CCOc1ccc2oc(C(=O)NNC(=O)c3ccccc3O)c(C)c2c1`: the “hERG current change (%, negative = inhibition) at 1uM” value is 10.9%.
For `Cn1c(Cc2ccccc2)nnc1SCC(=O)N1CCN(c2ccccc2)CC1`, the “hERG current change (%, negative = inhibition) at 1uM” value was determined as 6.18%.
On to `CCc1cc(=O)oc2cc(C)c3c(C)coc3c12`, for which the “hERG current change (%, negative = inhibition) at 1uM” value is 12.7%.
For `COc1ccc(-c2cc3nc4n(c(=O)c3s2)CCC4)cc1`, the “hERG current change (%, negative = inhibition) at 1uM” value was determined as 12.2%.
For the compound `O=C1N2CCSC2=NC1(Nc1nccs1)C(F)(F)F` (centres unmarked), the “hERG current change (%, negative = inhibition) at 1uM” value is reported as 12.2%.
Regarding `C=CCOC(=O)C1=C(C)N=C2SCCC(=O)N2C1c1cccs1` (centres unmarked), the “hERG current change (%, negative = inhibition) at 1uM” value is reported as 4.5%.
As for `O=C(CCN1C(=O)C2CCCCC2C1=O)N1CCN(S(=O)(=O)c2ccccc2)CC1` (centres unmarked), the “hERG current change (%, negative = inhibition) at 1uM” value was determined as 8.23%.
On to `Cc1ccc(NC(=O)CN(C)C(=O)CCSc2ccc(F)cc2)cc1`, for which the “hERG current change (%, negative = inhibition) at 1uM” value stood at 5.57%.
As for `COC(CNC(=O)c1ccc2c(=O)n(Cc3ccc4c(c3)OCO4)c(=S)[nH]c2c1)OC`, the figure is 10.7%; as for `CCOc1ccc(NC(=O)CN(c2cc(C)cc(C)c2)S(=O)(=O)c2c(C)noc2C)cc1`, 1.6%; as for `COc1ccc(C2CC(Cn3cc(C#N)c(=O)n(C)c3=O)ON2C)cc1` (centres unmarked), 15.9%.
As for `Clc1ccc2c(N3CCCC3)ccnc2c1`, the figure is -25.9%; as for `ONC=Nc1cccc2nonc12`, 11.1%; as for `Cc1ccc(C2N3CCCN23)cc1` (centres unmarked), 12.5%.
As for `NS(=O)(=O)c1ccc(CCn2c(=S)[nH]c3ccc(F)cc3c2=O)cc1`, the figure is 9.41%.
